According to the BET-seq Pho4 binding data (Le et al. 2018):
The list shows a part of the results. The energies were worked out here from pooled read counts, against the library average; single values are noisy.

Biological target: T1, Pho4 (S. cerevisiae) (UniProt P07270)
T1 sequence: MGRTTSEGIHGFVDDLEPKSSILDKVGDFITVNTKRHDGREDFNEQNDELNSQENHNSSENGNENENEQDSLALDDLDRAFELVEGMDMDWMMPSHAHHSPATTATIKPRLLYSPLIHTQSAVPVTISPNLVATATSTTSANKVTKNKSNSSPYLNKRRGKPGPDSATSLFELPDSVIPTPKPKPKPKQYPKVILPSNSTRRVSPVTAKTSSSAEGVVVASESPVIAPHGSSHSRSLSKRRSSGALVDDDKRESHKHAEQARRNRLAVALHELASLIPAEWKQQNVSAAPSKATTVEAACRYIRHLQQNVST
Test: relative binding free energy (BET-seq); higher = weaker binding
Conditions: reference: library average

| Sequence | relative binding free energy |
| --- | --- |
| TGGTGCACGTGAGCTC | 0.32 kcal/mol |
| GGGTTCACGTGTGCGC | 0.27 kcal/mol |
| TGTTGCACGTGCCTAG | -0.08 kcal/mol |
| GAAAGCACGTGGTTGG | -0.01 kcal/mol |
| GTGTACACGTGAGTAG | 0.26 kcal/mol |
| TGTTTCACGTGCTTGT | 0.3 kcal/mol |
| CTATTCACGTGGTGGT | 0.05 kcal/mol |
| TGCAGCACGTGTATTG | -0.03 kcal/mol |
| ATGGGCACGTGCGGTG | -0.19 kcal/mol |
| TTGTTCACGTGCGGAA | 0.22 kcal/mol |
| GGTTCCACGTGGAGAT | 0.16 kcal/mol |
| ACAGGCACGTGAGGGC | 0.27 kcal/mol |
| GTATTCACGTGTTGTA | 0.29 kcal/mol |
| GGACGCACGTGGGTAG | -0.18 kcal/mol |
| TGTGGCACGTGTTTAG | -0.06 kcal/mol |
| AGGGCCACGTGGTTCA | 0.02 kcal/mol |
| TAGACCACGTGTTTTG | 0.09 kcal/mol |
| GGGACCACGTGCGGTG | -0.08 kcal/mol |
| CCTGGCACGTGTTGTA | -0.09 kcal/mol |
| GTAGGCACGTGGTGAA | -0.09 kcal/mol |
| ATGCGCACGTGTAGGT | -0.06 kcal/mol |
| GTGTGCACGTGTGCAG | 0 kcal/mol |
| TGTATCACGTGAGGAA | 0.29 kcal/mol |

| Sequence | relative binding free energy |
| --- | --- |
| AATTACACGTGAGGGA | 0.35 kcal/mol |
| AGGGGCACGTGTTGGG | 0 kcal/mol |
| TTTATCACGTGTGCTA | 0.07 kcal/mol |
| TGAGGCACGTGATTGG | 0 kcal/mol |
| GTGAGCACGTGTTCGG | -0.08 kcal/mol |
| TACTTCACGTGGGTTG | 0.15 kcal/mol |
| TATGGCACGTGGCTGT | -0.15 kcal/mol |
| ATGGACACGTGAGCGG | -0.02 kcal/mol |
| GGCTGCACGTGGTACG | 0.06 kcal/mol |
| AGGGTCACGTGACGGG | 0.17 kcal/mol |
| CAGTGCACGTGGGGCC | -0.12 kcal/mol |
| AGTTCCACGTGAGGTG | 0.14 kcal/mol |
| TGTAGCACGTGCGGAG | -0.11 kcal/mol |
| TGCATCACGTGTTTAT | 0.25 kcal/mol |
| GTTGTCACGTGGTCAT | 0.14 kcal/mol |
| TGGGTCACGTGGTGCC | -0.02 kcal/mol |
| GGGATCACGTGTTCGA | 0.35 kcal/mol |
| TTCGTCACGTGCAGTG | 0.07 kcal/mol |
| TGGGTCACGTGATCGC | 0.2 kcal/mol |
| TTTTTCACGTGGTTTC | 0.25 kcal/mol |
| AGCATCACGTGAGGGG | 0.14 kcal/mol |
| ATTTGCACGTGAGCTA | 0.2 kcal/mol |
| ATTGTCACGTGATGAT | 0.27 kcal/mol |

| Sequence | relative binding free energy |
| --- | --- |
| TGGGGCACGTGATCTG | -0.07 kcal/mol |
| CCAGTCACGTGTGGTT | 0.13 kcal/mol |
| GAGGACACGTGTGAGG | 0.24 kcal/mol |
| TGGGACACGTGTTAAC | 0.12 kcal/mol |
| TTAATCACGTGGGTGG | 0.03 kcal/mol |
| GGGGCCACGTGGAGGT | -0.18 kcal/mol |
| TGGGACACGTGTACGA | 0.05 kcal/mol |
| TGATTCACGTGTTAAT | 0.33 kcal/mol |
| ATTGACACGTGAGAGT | 0.25 kcal/mol |
| CCAGGCACGTGGTTTT | 0 kcal/mol |
| TGTTGCACGTGCGCAG | -0.2 kcal/mol |
| TTTGACACGTGAATGC | 0.24 kcal/mol |
| TGGCACACGTGTGGAA | 0.03 kcal/mol |
| TGGAGCACGTGATCGG | -0.01 kcal/mol |
| GTTGCCACGTGGGAGG | -0.05 kcal/mol |
| TGGATCACGTGTGATA | 0.16 kcal/mol |
| TTTTGCACGTGTAGGA | 0.18 kcal/mol |
| ATCGTCACGTGAGTTT | 0.4 kcal/mol |
| CGTAGCACGTGAGTGT | -0.04 kcal/mol |
| AATTACACGTGCTTGT | 0.12 kcal/mol |
| GCTGTCACGTGTCAGG | 0.2 kcal/mol |
| ATGCTCACGTGGTGCT | 0.11 kcal/mol |
| TAGCTCACGTGCGGTT | 0.31 kcal/mol |

| Sequence | relative binding free energy |
| --- | --- |
| TTGGCCACGTGAGTTA | 0.17 kcal/mol |
| TAGGGCACGTGTTGAC | -0.01 kcal/mol |
| ATGTTCACGTGCGTGG | 0.09 kcal/mol |
| GACTGCACGTGTTTTT | 0.18 kcal/mol |
| TTTACCACGTGATGTG | -0.03 kcal/mol |
| GATGGCACGTGTTTTG | 0.03 kcal/mol |
| GGGATCACGTGCGTTT | 0.15 kcal/mol |
| ATCGGCACGTGGTGGC | -0.08 kcal/mol |
| ATTCACACGTGTTGGG | 0.07 kcal/mol |
| GAGGCCACGTGGTGAT | -0.02 kcal/mol |
| GTAGACACGTGTGTAT | -0.07 kcal/mol |
| GGCTTCACGTGGGGCG | 0.17 kcal/mol |
| CTAGTCACGTGTGGGC | 0.15 kcal/mol |
| TAGATCACGTGGGTGT | 0.09 kcal/mol |
| TCTGGCACGTGTTAGT | -0.08 kcal/mol |
| AGAAGCACGTGTGGTG | -0.11 kcal/mol |
| ATTATCACGTGTTGAC | 0.25 kcal/mol |
| AAATTCACGTGTCAGG | 0.38 kcal/mol |
| TGTTACACGTGTGGCC | 0.2 kcal/mol |
| GTACGCACGTGGGCGA | -0.12 kcal/mol |
| TCGGGCACGTGCAGGG | -0.22 kcal/mol |
| TTGATCACGTGTATGT | 0.21 kcal/mol |
| TCGATCACGTGTGGTT | 0.16 kcal/mol |

| Sequence | relative binding free energy |
| --- | --- |
| ATGGACACGTGGTGCG | -0.16 kcal/mol |
| GAGGGCACGTGAGTGT | 0.19 kcal/mol |
| ATTACCACGTGGTTGG | -0.18 kcal/mol |
| TTATACACGTGTTGTA | 0.01 kcal/mol |
| TCTTGCACGTGGAGTT | 0.17 kcal/mol |
| GCATTCACGTGTGGTT | 0.23 kcal/mol |
| GGCAACACGTGTGTTT | 0.13 kcal/mol |
| TCACGCACGTGGGGTG | -0.28 kcal/mol |
| GATTGCACGTGGAGGC | 0.2 kcal/mol |
| ACTTTCACGTGTATTA | 0.2 kcal/mol |
| TTGTCCACGTGGGCAT | -0.08 kcal/mol |
| TAGGTCACGTGATTGA | 0.19 kcal/mol |
| TTGTCCACGTGTGAGT | 0.18 kcal/mol |
| TCTGGCACGTGTCAGT | -0.02 kcal/mol |
| TTTTGCACGTGGGAGG | -0.01 kcal/mol |
| ATTGGCACGTGTTCGC | -0.07 kcal/mol |
| ATTAGCACGTGTTGGC | -0.17 kcal/mol |
| TGATTCACGTGTGGGG | 0.38 kcal/mol |
| TTAAACACGTGGTAAG | -0.01 kcal/mol |
| AGTTGCACGTGGGTTT | -0.11 kcal/mol |
| CATTTCACGTGGGAAT | 0.25 kcal/mol |
| TAGGACACGTGTGGTT | 0.1 kcal/mol |
| GACGTCACGTGTGGGG | 0.21 kcal/mol |
